The values below come from the supplement of paper PMC12632987.

The chains are these.
B1: traf2_out_11_131_657 (protein)
chain: MDPVAMARSAAERVDARLEHAKTLSPAERTRVAERALDSLEALAEYMKEHVDEMSKEDIEEAVKILRESAEKILAFDPSVAAEVEEVEKALEELLKAAEA
B2: traf2_out_3_89_2301 (protein)
chain: AAAEAAKIEAARARAERYARGFRKSARFVAKQMIADGMSLDTLRGVLEAARNALVEVFREELKEQGLSEETIEELVKELTEELEKIVEEILEEAEKKRAE
B3: traf2_out_13_95_1219 (protein)
chain: SAEANEKIREISNKMLEESEKIIEDLAEKLKPFPETQPYIEEIKHALKTRGITEAIHVLREASEKFPEVKELFDEAIEELEKIRRDAGKEVAKILKEDEE
B4: traf2_out_6_156_2455 (protein)
chain: MLEEILKKTKEEIKEGIKKLAEASEEKKIRYISRIAGAVYRGLQAAREAGASLEELEKFAEELLKTAEEEAKKAGLDEKTKNLLLASLRAVADVALAAAR
B5: traf2_out_17_162_1623 (protein)
chain: SPEEEELKRYEEELKELEKEKKELEKKAEKIDELSKEELTDLLVEASEARRRARELAERIERKREELNDPRLEELLKRAEEIAEEFQRIANKFYKKLEEK
B6: traf2_out_6_3_2528 (protein)
chain: SAESLAADARTILENMGITTAEQLLALVKAEVNAVRQLVSRPDVDRADLAGARSVLALTRAMVEVAAETLPSLTEEQKKEALALIEEAEKLVEQKAAELE
B7: traf2_out_16_171_1436 (protein)
chain: MKEEEEKKLKEEIDKKAKELKERMDTAVEVAPLISKETGLSMEQIAAGFRSTMTDRIEALEKYFTEKAKDLSEEVKEYIKEKLEEVRKHLEEAVKKILAL
B8: traf2_out_18_167_1829 (protein)
chain: EEEIRKKKSELTDKMVEWSEVRRRAQALLQRLEADPSLLPEVLEELEEIAERTGRYLERVEAIKELPPEEALAATKELLEEIIEDAQRKMNELYKKYEEL
B9: traf2_out_6_156_2421 (protein)
chain: MKEEILKEAEEKIKELIKKLAKASEEKKIRYISEIAGAVYRALQKMREAGASVEEIKEAVERLEKVAKEEAKKAGLPQETIDLLLASIRAVGEVALREAE
B10: traf2_out_13_95_1155 (protein)
chain: SKELAEKIMEIADRMLDEALAVLDELLAAAKAAGKLEEEVARARHLAEHHSINEAIALLRELAKAHPEFKEELDAAIARLEALRREAGREVAELIKKEKE
B11: traf2_out_6_156_2411 (protein)
chain: MVEEIFKETMEKVKKLIKELAKASEEKKIQYISKIAGEVYKALQKLREAGASLEEIKEFSERLKKEIKALAEEAGLPEETRNLLLSAVNAVFEVAIEEAK
B12: traf2_out_18_3_1905 (protein)
chain: KEKERQELSDKIDEIVDEAEARAREVLARLKAAHPEVAAELDALEADLAAGGGAFGVLEALAELARRLGEEELAAEIEAFIREKRKKFQELVDKYEELIK
B13: traf2_out_18_117_1766 (protein)
chain: MTREEIIERLEEIAEELGRKASELGKLMLENWEKLSPEEKSEIMDVLADLTEVRREALELIARIRAGEIPVEEAIERAEEIEKRAKEALEKAEKMIEKIK
B14: traf2_out_5_63_2346 (protein)
chain: SEREELTALAREADRLAREIIAAAKAGDEARAAALLKRAVEDPELARLVLGILKGEAKYYKLLGDKPEEAAIAERLAAELEALAAERAAAEAAAAAAAAA
B15: traf2_out_20_3_2223 (protein)
chain: EELKREIEEELRKIEELLEKAKPLLPEEDYKKLKELLEKAREALETDLTDALVYLSELRRLALELAQEARAAGNEELAKLLEEMAERANRAAGLVLKAIE
B16: traf2_out_15_180_1325 (protein)
chain: MTEEELEKRIELANKVADKAQDRLAALLAAHPDLTPEERAALRALARSLTTLYMNGEEEEAAAALEAAKARLSPRAAAVADELAEFIKEEVKKAKEELKK
B17: traf2_out_11_155_758 (protein)
chain: DTLRAKANAINDAAMEIADKIDAFIEEVIAEVEKEDPEVAKRIRAALEKHRDASARSKALIVARVLKEAGYEEKAKRVEEFLEKAQKELNKKVKEIEEAA
B18: traf2_out_16_62_1466 (protein)
chain: EEEKERLLEEADEKIDAAQELRDAVITYVSGGDREAALAKIEELAKKYGPLVKELLEALKKAEADPENREEYLAKALELATEVRTRLVKEALRLEEEAKK
B19: traf2_out_13_95_1127 (protein)
chain: SAETAKKIMEVADEMIDKSIAILEALKAKMEAKGLLKEEMDEVLHLAKYQSIREAIHKLKELAKAHPEVAADLNAAIAELEALIREAGKRVAEILKEEQE
B20: traf2_out_1_27_1006 (protein)
chain: STEEERRLLREANRAIGRASPEEAVEIIRRAVREALERGLDSPLHIATVLILSLGDEETRERALEAVEEVLREAGVSEEEIALLRERVRSGWERRDRLLA
B21: traf2_out_20_3_2073 (protein)
chain: EELLKQLEEELDKALALLKEAAALADPETAAELNALIAELKASRSLSISDRLVTISEVRRRVLELRERALAAGREELAAVLDKAADALNRAAQLAYKILQ
B22: traf2_out_6_156_2419 (protein)
chain: KKEEILKKTLEEIKKLIKELSKASEEKKIAYISKIAGTVKRGLEELRKLGASKEEIKEFVEKVKKEAKEEAKKEGLDESTINLLLSSINAVGDVAIREAE
B23: traf2_out_13_95_1103 (protein)
chain: SEETAKKIMEVADKMLDKVEELLEKLLEKAKKAGKLEEEIEKALHLARYQSINEAIHLLKELAKKYPEFKEELEETIKEIEALRKQAGKEVAKIIKEEKE
B24: traf2_out_19_16_1991 (protein)
chain: SEEEAKKLREEMKKHLDEALKLAKEAVENLEELSREELMDALVEISELVRKAKEALQKFLELAKDDPELRKEVTEEFDEKLDEIQRLMTIIVDRIEELLK
B25: traf2_out_11_104_647 (protein)
chain: LTREQAREFNDFAMEARDRAAALLARVAEHLRAAGHEEEAARVEALLAHPGSGISSFRNLLEELLPRLDPESAAVARAAIAELEALQKEVSEKLNELEKK
B26: traf2_out_6_156_2427 (protein)
chain: MVEEILKETLKEIKELIKELSKASEEKKIRYINKIAGTVYRALQKLREIGASVEELKKFGEEVIKKAKEWAKEEGLPESTINLLLSSLNAVTDVAIAEAK
B27: traf2_out_14_154_1270 (protein)
chain: DELWAELEYHSAMRRLYDSVVESMERLSVEETIAHLRAATDLVVARVPEKAEEIRARAAEIEARLAGSPEEREALLKELKAKAEEEAKKAREAFKEIEKK
B28: traf2_out_20_3_2255 (protein)
chain: EELREKALEALEKAEKILKELEPKLPEEDAKALKEALEKAREAFETDYRDALVYVSELRRLALELAEKARAAGDEETAKKLEELAEEAQRAAYYLSKIIE
B29: traf2_out_17_162_1473 (protein)
chain: MSIEERVAALEAELAALREERERLEKELERLEEMSKEEITDLLVRASEARRRARQLAEEFRALAPEIGEERAAALAAEAEAVAEELQRIANKIYEELEKK

Over roughly 1,800 sequences, “median log2 fold change of GCK-ALFA target abundance (FLAG IP / Myc IP barcode read proportion)” has its median near 0.14; the lowest 2% begin near -0.84. The list shows a part of the results.

The experiment deals with T1, TRAF2, Q12933.
T1 chain: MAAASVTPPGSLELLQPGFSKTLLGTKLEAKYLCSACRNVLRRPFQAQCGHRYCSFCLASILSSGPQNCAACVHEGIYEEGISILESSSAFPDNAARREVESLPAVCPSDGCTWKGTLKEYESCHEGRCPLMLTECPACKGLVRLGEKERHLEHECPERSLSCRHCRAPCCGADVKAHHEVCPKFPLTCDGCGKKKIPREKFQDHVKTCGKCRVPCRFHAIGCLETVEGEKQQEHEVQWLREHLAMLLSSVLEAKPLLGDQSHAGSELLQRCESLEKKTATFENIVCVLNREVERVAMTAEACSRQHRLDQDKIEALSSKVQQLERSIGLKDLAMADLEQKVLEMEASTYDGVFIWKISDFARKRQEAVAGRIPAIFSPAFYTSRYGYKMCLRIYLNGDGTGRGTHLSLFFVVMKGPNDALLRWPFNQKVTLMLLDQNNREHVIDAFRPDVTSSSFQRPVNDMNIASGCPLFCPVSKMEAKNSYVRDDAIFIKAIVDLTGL
Description: median log2 fold change of GCK-ALFA target abundance (FLAG IP / Myc IP barcode read proportion) (log2 ratio); each designed protein is fused to an ALFA-tag nanobody in HEK293 cells to bring the named protein to FLAG-tagged glucokinase (GCK); Myc marks an untargeted standard; higher = target protein stabilised (more abundant). Particulars: target protein: 3xFLAG-MCP-GCK-ALFA reporter; HEK293 landing pad (RPLP). The method, boiled down:
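Sequencing of reverse-transcribed, amplified circular RNA barcodes from anti-FLAG and anti-Myc immunoprecipitates provided the readout for an ALFA-nanobody-fused binder library recombined into HEK293 landing-pad cells. Those cells were induced with 2 μg mL^−1 doxycycline, transfected with a plasmid expressing a FLAG-tagged target and a Myc-tagged standard, and lysed after 48 h. Target abundance is the per-binder median log2 ratio of FLAG to Myc barcode read proportions. Only barcodes at a proportion of ≥10^−7 in both replicates and binders with ≥3 barcodes per replicate were kept, with a 10^−6 pseudocount added before the two replicates were pooled.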
Turning to B1, the “median log2 fold change” value turned out to be 0.208. With B2 the figure was -0.974; with B3, 0.0665; with B4, -0.358. The same measure for B5: 0.4; for B6: -0.59. The same measure for B7: 0.0522; for B8: 0.126. In the case of B9, the “median log2 fold change” value was -0.0921.

B10: the “median log2 fold change” value was -0.372.

Regarding B11, the “median log2 fold change” value was -0.15. The same measure for B12: 0.114; for B13: 0.128. Regarding B14, the “median log2 fold change” value was -0.285. The same measure for B15: 0.163; for B16: 0.414.

Turning to B17, the “median log2 fold change” value came out at 0.218.

For B18, the “median log2 fold change” value was 0.00239. The same measure for B19: -0.427; for B20: 0.209; for B21: -0.332. With B22 the figure was 0.174; with B23, -1.3; with B24, 0.0861. With B25 the figure was 0.215; with B26, -0.0638; with B27, 0.199. For B28, the “median log2 fold change” value is 0.327. With B29 the figure was 0.295.
